Drawing on article PMC9911399, “Two distinct binding modes provide the RNA-binding protein RbFox with extraordinary sequence specificity”, this text covers binding signal for 20 molecules.

The labels stand for the following.
T1: RBFOX1 RRM (Homo sapiens, UniProt Q9NWB1 109-208)
T1 sequence: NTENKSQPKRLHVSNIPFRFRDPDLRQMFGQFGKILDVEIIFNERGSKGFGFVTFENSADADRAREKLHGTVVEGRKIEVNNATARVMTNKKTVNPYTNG

B1: GCACCUA (DNA:RNA)
RNA: GGGAGACCGGAAUUCAGAUUGUCCGCACCUAUUAAAUCCCGUCGUAGCCACCA
DNA 1: CAATCTGAATTCCGGTCTCCC
DNA 2: TGGTGGCTACGACGGGATT
B2: AUCUAAG (DNA:RNA)
RNA: GGGAGACCGGAAUUCAGAUUGUCCAUCUAAGUUAAAUCCCGUCGUAGCCACCA
DNA 1: CAATCTGAATTCCGGTCTCCC
DNA 2: TGGTGGCTACGACGGGATT
B3: ACGUACC (DNA:RNA)
RNA: B2 RNA with U26C, C27G, A30C, G31C
DNA 1: CAATCTGAATTCCGGTCTCCC
DNA 2: TGGTGGCTACGACGGGATT
B4: GCCGAGA (DNA:RNA)
RNA: B1 RNA with A27C, C28G, C29A, U30G
DNA 1: CAATCTGAATTCCGGTCTCCC
DNA 2: TGGTGGCTACGACGGGATT
B5: GGAGGCG (DNA:RNA)
RNA: B1 RNA with C26G, C28G, C29G, U30C, A31G
DNA 1: CAATCTGAATTCCGGTCTCCC
DNA 2: TGGTGGCTACGACGGGATT
B6: CAGUACA (DNA:RNA)
RNA: B2 RNA with A25C, U26A, C27G, A30C, G31A
DNA 1: CAATCTGAATTCCGGTCTCCC
DNA 2: TGGTGGCTACGACGGGATT
B7: CUCAUCG (DNA:RNA)
RNA: B2 RNA with A25C, U28A, A29U, A30C
DNA 1: CAATCTGAATTCCGGTCTCCC
DNA 2: TGGTGGCTACGACGGGATT
B8: GCGCGGC (DNA:RNA)
RNA: B1 RNA with A27G, C29G, U30G, A31C
DNA 1: CAATCTGAATTCCGGTCTCCC
DNA 2: TGGTGGCTACGACGGGATT
B9: GACCUUU (DNA:RNA)
RNA: B1 RNA with C26A, A27C, C29U, A31U
DNA 1: CAATCTGAATTCCGGTCTCCC
DNA 2: TGGTGGCTACGACGGGATT
B10: UUUCAUU (DNA:RNA)
RNA: B2 RNA with A25U, C27U, U28C, A30U, G31U
DNA 1: CAATCTGAATTCCGGTCTCCC
DNA 2: TGGTGGCTACGACGGGATT
B11: CAGGGGU (DNA:RNA)
RNA: GGGAGACCGGAAUUCAGAUUGUCCCAGGGGUUUAAAUCCCGUCGUAGCCACCA
DNA 1: CAATCTGAATTCCGGTCTCCC
DNA 2: TGGTGGCTACGACGGGATT
B12: GUAACUU (DNA:RNA)
RNA: B1 RNA with C26U, C28A, A31U
DNA 1: CAATCTGAATTCCGGTCTCCC
DNA 2: TGGTGGCTACGACGGGATT
B13: UUCCAAC (DNA:RNA)
RNA: B2 RNA with A25U, U28C, G31C
DNA 1: CAATCTGAATTCCGGTCTCCC
DNA 2: TGGTGGCTACGACGGGATT
B14: GUCUUUU (DNA:RNA)
RNA: B2 RNA with A25G, A29U, A30U, G31U
DNA 1: CAATCTGAATTCCGGTCTCCC
DNA 2: TGGTGGCTACGACGGGATT
B15: AAUUACG (DNA:RNA)
RNA: B2 RNA with U26A, C27U, A30C
DNA 1: CAATCTGAATTCCGGTCTCCC
DNA 2: TGGTGGCTACGACGGGATT
B16: CCUCGUU (DNA:RNA)
RNA: B11 RNA with A26C, G27U, G28C, G30U
DNA 1: CAATCTGAATTCCGGTCTCCC
DNA 2: TGGTGGCTACGACGGGATT
B17: UCGUGUC (DNA:RNA)
RNA: B11 RNA with C25U, A26C, G28U, G30U, U31C
DNA 1: CAATCTGAATTCCGGTCTCCC
DNA 2: TGGTGGCTACGACGGGATT
B18: GAGCGCU (DNA:RNA)
RNA: B11 RNA with C25G, G28C, G30C
DNA 1: CAATCTGAATTCCGGTCTCCC
DNA 2: TGGTGGCTACGACGGGATT
B19: GCAUAUA (DNA:RNA)
RNA: B1 RNA with C28U, C29A
DNA 1: CAATCTGAATTCCGGTCTCCC
DNA 2: TGGTGGCTACGACGGGATT
B20: GGAGGCC (DNA:RNA)
RNA: B11 RNA with C25G, A26G, G27A, G30C, U31C
DNA 1: CAATCTGAATTCCGGTCTCCC
DNA 2: TGGTGGCTACGACGGGATT

Residue numbers refer to the chain shown, from its start. This is one part of the list.

The assay deals with T1, RBFOX1 RRM. As to the kind of experiment: EMSA; HiTS-Eq, 1 nM pool, 10 min; buffer printed only for the single-RNA assays: 10 mM Tris pH 7.5, 150 mM NaCl, 3.4 mM EDTA, 0.001% NP-40, 30 C. The note with it: tags: His6 N-terminal (pET28a); label: 5' 32P. Summed up: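 Purified RbFox RRM (wild type or mutant) was equilibrated for 10 min in 50 µL with 1 nM of a 5′-radiolabelled pool of RNA with 7 randomized nucleotides, its flanks annealed to DNA oligonucleotides, across increasing protein concentrations. Free RNA was separated by 8% native PAGE, excised, reverse-transcribed, PCR-barcoded and sequenced on an Illumina HiSeq 2500. Relative association constants came from read-count changes of each variant against the control reaction, normalised to the cognate motif.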
On to B1, for which the binding signal was 0.0076 KA relative to UGCAUGU.
With B2, the binding signal was 0.00346 KA relative to UGCAUGU.
Turning to B3, the binding signal is 0.00409 KA relative to UGCAUGU.
As to B4, the binding signal is 0.0191 KA relative to UGCAUGU.
As for B5, the binding signal was 0.0203 KA relative to UGCAUGU.
B6: the binding signal was 0.00256 KA relative to UGCAUGU.
The value for B7 was 0.00489 KA relative to UGCAUGU; that for B8 was 0.0209 KA relative to UGCAUGU.
As for B9, the binding signal was 0.00717 KA relative to UGCAUGU.
For the molecule B10, the binding signal is 0.00437 KA relative to UGCAUGU.
For the molecule B11, the binding signal is 0.0132 KA relative to UGCAUGU.
The value for B12 was 0.00362 KA relative to UGCAUGU; that for B13 was 0.00154 KA relative to UGCAUGU.
For the molecule B14, the binding signal was 0.0163 KA relative to UGCAUGU.
In the case of B15, the binding signal was 0.00307 KA relative to UGCAUGU.
Take B16: the binding signal was 0.0102 KA relative to UGCAUGU.
On to B17, for which the binding signal was 0.0187 KA relative to UGCAUGU.
In the case of B18, the binding signal was 0.0156 KA relative to UGCAUGU.
As to B19, the binding signal is 0.0014 KA relative to UGCAUGU.
Take B20: the binding signal was 0.0168 KA relative to UGCAUGU.
